Results reported in PubChem BioAssay AID588453 (National Center for Advancing Translational Sciences (NCATS), 2011).
Where “and” joins values, the source holds several entries; their conditions need not be identical. Equal values may be shown once. Out of some 390,000 compounds screened, about 4,000 (1%) were called active. The inconclusive results got no clear call from the source; some entries with a clear call stand among them for comparison. Calls follow the shape of the dose curve; as a rule, active = well fitted inhibition curve with a large enough effect; inconclusive = small, poorly fitted or top-dose-only effect; inactive = no such curve, though single readings can be large or run the other way. A potency beside an inconclusive call is a rough fit, not a confirmed value.

Target: Thioredoxin reductase 1, cytoplasmic (Rattus norvegicus) (UniProt O89049)
Assay: qHTS Assay for Inhibitors of Mammalian Selenoprotein Thioredoxin Reductase 1 (TrxR1): qHTS; also: nearly all actives have a fitted effect of over 65% in size
Settings: recombinant rTrxR1, NADPH fluorescence consumption, selenite substrate; series mostly up to 114 µM; activity change, negative = inhibition: at the top concentration
How it was run: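 Rat TrxR1 (90 nM in the dispensed reagent) was pre-reduced with 400 uM NADPH for 5 min at room temperature, then incubated with compound for 15 min. After 400 uM selenite was added, NADPH fluorescence (Ex 340/Em 450 nm) was followed for 8 min.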
% is scaled to controls: 0 for no effect and ±100 for the full control effect; potency is read from the fitted curve at half-maximal effect; tags tell the direction and shape of the fitted curve.

Chain of UniProt O89049 (O89049 whole entry, looked up): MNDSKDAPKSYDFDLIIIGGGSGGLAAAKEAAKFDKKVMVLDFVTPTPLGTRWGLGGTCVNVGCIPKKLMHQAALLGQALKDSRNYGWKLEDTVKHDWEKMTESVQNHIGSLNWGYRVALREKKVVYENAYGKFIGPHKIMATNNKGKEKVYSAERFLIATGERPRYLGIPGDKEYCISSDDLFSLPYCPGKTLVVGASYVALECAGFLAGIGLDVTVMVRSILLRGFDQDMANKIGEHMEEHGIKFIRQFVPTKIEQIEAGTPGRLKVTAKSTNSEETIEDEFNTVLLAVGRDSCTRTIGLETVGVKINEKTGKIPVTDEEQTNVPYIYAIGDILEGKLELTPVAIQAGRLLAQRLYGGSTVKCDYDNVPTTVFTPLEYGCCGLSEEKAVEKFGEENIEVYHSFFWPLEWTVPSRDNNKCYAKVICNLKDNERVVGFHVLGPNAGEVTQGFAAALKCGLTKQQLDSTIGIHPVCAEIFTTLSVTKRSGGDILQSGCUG

| SMILES | Potency | activity change, negative = inhibition |
| --- | --- | --- |
| C=CCCn1c(Cl)c(C#N)sc1=O | inconclusive: 25.1 µM [inhibitor, single point] |  |
| CC1(C)Cc2ccccc2-c2nc3ccccc3c(=O)n21 |  | inactive: -3.44% |
| Cc1oc2c(c1C(=O)N1CCC(C)CC1)C(=O)c1ccccc1C2=O |  | inactive: 13.6% |
| O=C(COC(=O)c1cc([N+](=O)[O-])ccc1Cl)NC1CCCC1 | inconclusive: 89.1 µM [inhibitor, partial curve, poor fit] |  |
| O=C(N/N=C/c1ccncc1)c1ccc(OCc2ccccc2)cc1 |  | inactive: 4.85% |
| O=c1[nH]c(SCc2n[nH]c(=S)n2-c2ccccc2)nc2sc3c(c12)CCC3 | inconclusive: 22.4 µM [inhibitor, full curve, poor fit] |  |
| CCOc1ccccc1NC(=O)Cc1csc(COc2cccc(C)c2)n1 |  | inactive: 1.61% |
| CC1=NOC(=O)/C1=C/c1ccc(O)cc1 | inconclusive: 28.2 µM [inhibitor, single point] |  |
| O=C(NC(=S)Nc1ccccc1Br)c1cccnc1 | inconclusive: 25.1 µM [inhibitor, full curve] |  |
| COc1cccc(C2C(C(=O)c3cc4ccccc4o3)=C(O)C(=O)N2c2cc(C)on2)c1OC (centres undefined) | inconclusive: 50.1 µM [inhibitor, partial curve] |  |
| CC(=O)N=Cc1c(C)c(C#N)c(=O)n(C)c1O | inconclusive: 25.1 µM [inhibitor, single point] |  |
| CCOc1ccccc1NC(=O)c1cc2cc(C)ccc2n1C |  | inactive: 20.5% |
| CCOc1ccc(C(=O)CCN2CCOCC2)cc1 | active: 3.16 µM |  |
| C=CCNc1ncnc2c1cnn2-c1cccc(C)c1 |  | inactive: 25.5% |
| CCOC(=O)N1CCC(NC(=O)c2cnn3c2NC(c2ccco2)CC3C(F)(F)F)CC1 (centres undefined) | inconclusive: 22.4 µM [inhibitor, full curve] |  |
| CC(=O)c1ccccc1OCC(O)CN1CCN(CCN2C(=O)c3cccc4cccc(c34)C2=O)CC1 (centres undefined) |  | inactive: 16.2% [at 57.1 µM] |
| COc1ccc(C2=Nc3ccccc3OC2)cc1 | inconclusive: 31.6 µM [inhibitor, partial curve, poor fit] |  |
| O=C(C1=C(O)C(=O)N(c2ncccn2)C1c1cccs1)c1ccco1 (centres undefined) | inconclusive: 28.2 µM [inhibitor, single point] |  |
| CCn1ccc2cc(OC)ccc2c1=S |  | inactive: 13.6% [at 57.1 µM] |
| O=C(CSc1nnc(Cc2cccs2)n1Cc1ccco1)Nc1ccc(Cl)cc1Cl | inconclusive: 79.4 µM [inhibitor, single point] |  |
| CCOC(=O)c1cnc2c(Cl)c(Cl)ccc2c1NCCN1CCOCC1 | inconclusive: 31.6 µM [inhibitor, full curve] |  |
| Cn1c(=O)c(=O)n(C)c2cc(N3CCCC3)c(NS(=O)(=O)c3ccc(F)cc3)cc21 | inconclusive: 50.1 µM [inhibitor, partial curve] |  |
| CC1CC=C2C(C#N)=C(N)C(C#N)(C#N)C(c3cccs3)C2C1 (centres undefined) | inconclusive: 8.91 µM [inhibitor, partial curve] |  |

| SMILES | Potency | activity change, negative = inhibition |
| --- | --- | --- |
| O=C(Nc1ccc(Br)c2ccccc12)c1ccc2ccccc2c1O |  | inactive: 39.2% [at 0.0914 µM] |
| O=C(Nc1nc(-c2ccccn2)cs1)c1ccc(-c2ccccc2F)o1 | inconclusive: 50.1 µM [inhibitor, partial curve] |  |
| O=C(O)CCCCCNS(=O)(=O)c1cccc2c1C(=O)c1ccccc1C2=O |  | inactive: -11.9% |
| COC(=O)c1ccc(NS(=O)(=O)c2c(C)nc3sccn3c2=O)cc1 |  | inactive: 1.14% |
| COc1cc(C(=O)ON=C2C(C)=CC(=O)C=C2C)cc(OC)c1OC | inconclusive: 4.47 µM [inhibitor, full curve] |  |
| O=C(/C=C\c1ccc(-c2ccccc2)o1)c1ccccc1 | active: 10 µM |  |
| O=C(CCSc1nc(-c2ccco2)cc(C(F)(F)F)n1)N1CCCc2ccccc21 | inconclusive: 17.8 µM [inhibitor, full curve] |  |
| O=C(CN1CCOC1=O)N1CCCC(N2CCN(c3cccc(C(F)(F)F)c3)CC2)C1 (centres undefined) | inconclusive: 50.1 µM [inhibitor, partial curve] |  |
| O=C(COC(=O)c1ccc(-c2ccc([N+](=O)[O-])cc2)o1)NC(=O)NC12CC3CC(CC(C3)C1)C2 | inconclusive: 70.8 µM [inhibitor, partial curve, poor fit] |  |
| Clc1ccccc1CSc1nnc(-c2ccco2)c(-c2ccco2)n1 | active: 5.01 µM |  |
| COC(=O)c1ccc(/C=C/C(=O)c2cccc(OC)c2)cc1 | inconclusive: 39.8 µM [inhibitor, partial curve] |  |
| CCOC(=O)C1=C(O)/C(=C/c2ccc(-c3ccccc3C(=O)O)o2)SC1=Nc1ccc(OC)cc1 | inconclusive: 11.2 µM [inhibitor, partial curve] |  |
| CC1=NN(c2ccccc2)C(=O)/C1=C/c1c(O)n(-c2ccc(F)cc2)[nH]c1=O | inconclusive: 50.1 µM [inhibitor, partial curve] |  |
| Cc1nc2ccccn2c1/C(O)=C1\C(=O)C(=O)N(CCN(C)C)C1c1cccnc1 (centres undefined) | inconclusive: 70.8 µM [inhibitor, partial curve] |  |
| O=C(Cn1c(=O)nc(-c2ccccc2)c2ccccc21)NCCc1ccc(Cl)cc1 |  | inactive: 2.99% [at 57.1 µM] |
| c1ccc(OCc2nn3c(Cn4cnc5ccccc54)nnc3s2)cc1 | inconclusive: 22.4 µM [inhibitor, partial curve, poor fit] |  |
| COc1cc2c(cc1OC)[C@H](Cc1ccc(O)cc1)NCC2 | inconclusive: 25.1 µM [inhibitor, single point] |  |
| COC(=O)c1c(C)[nH]c(C=Nc2ccc(OC)cc2)c1C |  | inactive: -10.7% |
| O=S(=O)(c1ccc2nc(Cc3ccccc3)[nH]c2c1)N1CCOCC1 | inconclusive: 79.4 µM [inhibitor, single point] |  |
| NS(=O)(=O)c1ccc(N2N=C(c3ccccc3)CC2c2cccc(Cl)c2)cc1 (centres undefined) | inconclusive: 50.1 µM [inhibitor, single point] |  |
| c1ccc(CN2CCN(c3nc4ccccc4n4cnnc34)CC2)cc1 | inconclusive: 89.1 µM [inhibitor, single point] |  |
| COc1cccc(CC2(CO)CCCN(Cc3[nH]c4ccc(C)cc4c3C)C2)c1 (centres undefined) | inconclusive: 89.1 µM [inhibitor, single point] |  |
| Clc1ccc2c(c1)C(N1CCNCC1)=Nc1ccccc1O2 | inconclusive: 79.4 µM [inhibitor, partial curve, poor fit] |  |

| SMILES | Potency | activity change, negative = inhibition |
| --- | --- | --- |
| COCCCNC(=O)Cc1c(C)c2cc3c(cc2oc1=O)OC(C)(C)CC3 | inconclusive: 89.1 µM [inhibitor, single point] |  |
| Cc1ccc(S(=O)(=O)N2CCN(C(=O)c3cc(S(=O)(=O)N4CCOCC4)ccc3Cl)CC2)c(C)c1 |  | inactive: 19.2% |
| Cc1nnc(NC(=O)CSc2n[nH]c(-c3ccccc3)n2)s1 | inconclusive: 15.8 µM [inhibitor, full curve] |  |
| O=C(Cn1ccnc1[N+](=O)[O-])NCc1ccccc1 | inconclusive: 79.4 µM [inhibitor, partial curve, poor fit] |  |
| COc1ccc(CN2CCN(C3CCSCC3)CC2CCO)c(C)c1C (centres undefined) | inconclusive: 17.8 µM [inhibitor, partial curve, poor fit] |  |
| CCCCOc1ccc(C(=O)Nc2ccc3oc(-c4cccnc4)nc3c2)cc1 |  | inactive: 19.6% |
| O=C(COc1ccccc1Cl)OCc1cc(=O)n2nc(C3CCCCC3)sc2n1 |  | inactive: 16% [at 57.1 µM] |
| COc1cc2c(cc1OC)-c1cc(OCCN3CCOCC3)nc(=O)n1CC2 | inconclusive: 50.1 µM [inhibitor, single point] |  |
| CCc1ccc(C(=O)c2cnc3ccc(F)cc3c2S(=O)(=O)c2ccccc2)cc1 | inconclusive: 10 µM [inhibitor, partial curve, poor fit] |  |
| O=C(O)CCc1ccc(-c2ccccc2)n1CC(=O)O | inconclusive: 25.1 µM [inhibitor, partial curve, poor fit] |  |
| COC(=O)c1c(NC(=O)CCCOc2ccc(C(C)(C)C)cc2)sc2c1C(C(=O)OC)CC2 (centres undefined) |  | inactive: 0.94% |
| CCc1ccc(NCCC(=O)c2ccc(Br)cc2)cc1 | inconclusive: 17.8 µM [inhibitor, full curve] |  |
| CCOC(=O)C1CCN(C(=O)c2ccc(OCC(=O)Nc3cccc(C(F)(F)F)c3)c(OC)c2)CC1 |  | inactive: -6.7% |
| Cc1cccc(NC(=O)CCS(=O)(=O)c2cccc3nsnc23)c1C | inconclusive: 31.6 µM [inhibitor, single point] and inconclusive: 50.1 µM [inhibitor, partial curve] |  |
| CCOc1ccc(C(=O)NCC(=O)NNC(=O)CN(C)S(=O)(=O)c2ccc(Cl)cc2)cc1OCC |  | inactive: 10.3% |
| Cc1ccc(C)c(NC(=O)CCC(=O)N/N=C/c2cc([N+](=O)[O-])ccc2O)c1 |  | inactive: 15.4% [at 57.1 µM] |
| Nc1ccc2c(c1)C(=O)c1ccccc1C2=O |  | inactive: 22% |
| O=C(c1ccc(Br)o1)N1CCN(c2ccc3nnc(-c4ccccc4)n3n2)CC1 | inconclusive: 70.8 µM [inhibitor, partial curve] |  |
| CCOC(=O)c1c(C)n(C)c2ccc(OC(=O)c3ccc([N+](=O)[O-])cc3)cc12 |  | inactive: 8.35% |
| O=C(NCc1ccco1)[C@@H]1CSC2c3ccccc3C(=O)N21 (some centres undefined) | inconclusive: 17.8 µM [inhibitor, partial curve, poor fit] |  |
| CS(=O)(=O)O/N=C1\CCCCC1c1ccc([N+](=O)[O-])cc1[N+](=O)[O-] (centres undefined) | inconclusive: 10 µM [inhibitor, partial curve] |  |
| CC(Cl)C(=O)NNc1cccc(Cl)n1 (centres undefined) | inconclusive: 22.4 µM [inhibitor, single point] |  |
| Cn1c(SCC(=O)c2ccccc2)nnc1-c1cnccn1 | inconclusive: 10 µM [inhibitor, full curve] |  |
